Reference: PubChem BioAssay (Tox21)
The inconclusive results got no clear call from the source; some entries with a clear call stand among them for comparison. A potency beside an inconclusive call is a rough fit, not a confirmed value. Activity calls are given as the source filed them. Unless noted, the call rests on the fitted dose curve; in most records, active means well fitted cell-killing curve with a large enough effect in the repeat runs; inconclusive means weak or mixed curves; inactive means no such curve, though single readings can be large or run the other way.

Target: Peroxisome proliferator-activated receptor delta (Homo sapiens) (UniProt Q03181)
Test: qHTS assay to identify small molecule agonists of the peroxisome proliferator-activated receptor delta (PPARd) signaling pathway (AID 743212; calls by dose curve;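 further: HEK293H cells with PPARd UAS beta-lactamase reporter GeneBLAzer system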)
Conditions: HEK293H PPARd-UAS-bla, beta-lactamase FRET ratio, 17 h; activation: at 62.6 µM (top of the series) unless noted
How it was run: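 A PPARd-bla HEK293H line with beta-lactamase under an Upstream Activator Sequence is treated with compounds at 37 C. Substrate loading for 2 h at room temperature precedes the fluorescence measurement.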
On the % scale 0 is the no-effect control and ±100 the full control effect; potency means the concentration at half of the fitted maximal effect; tags describe the fitted curve by direction and shape.

Chain of UniProt Q03181 (Q03181 whole entry, looked up): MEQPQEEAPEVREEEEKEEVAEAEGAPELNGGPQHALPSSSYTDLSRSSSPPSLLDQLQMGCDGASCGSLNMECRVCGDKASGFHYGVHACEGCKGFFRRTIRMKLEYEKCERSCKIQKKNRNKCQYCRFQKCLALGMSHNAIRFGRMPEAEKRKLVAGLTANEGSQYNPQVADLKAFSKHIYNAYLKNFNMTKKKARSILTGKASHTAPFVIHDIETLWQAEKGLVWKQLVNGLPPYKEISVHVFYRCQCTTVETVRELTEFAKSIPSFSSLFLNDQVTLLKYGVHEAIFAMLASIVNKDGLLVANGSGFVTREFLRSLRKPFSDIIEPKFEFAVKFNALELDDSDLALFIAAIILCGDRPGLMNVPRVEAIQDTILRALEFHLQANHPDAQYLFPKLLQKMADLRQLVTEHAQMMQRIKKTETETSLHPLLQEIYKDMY

| SMILES | Potency |
| --- | --- |
| CCCCCC(=O)O | inactive |
| Cc1cc(=O)oc2cc(O[C@@H]3SC[C@@H](O)[C@H](O)[C@H]3O)ccc12 | inactive |
| COC(=O)c1ccc(NC(C)=O)cc1OC | inactive |
| CC(=O)CC(=O)Nc1ccc(C)cc1C | inactive |
| O=C(O)c1cn(C2CC2)c2cc(Cl)c(F)cc2c1=O | inconclusive: 23700 nM [rising, partial curve, poor fit] |

Test system: not listed separately
Test: qHTS assay to identify small molecule antagonists of the peroxisome proliferator-activated receptor delta (PPARd) signaling pathway - cell viability counter screen (AID 743213); further: nearly all actives have a fitted effect of over 50% in size
Conditions: PPARd-bla HEK293H viability, CellTiter-Glo luminescence, 17 h; viability change, negative = cytotoxic: at 62 µM (top of the series) unless noted
How it was run: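 HEK293H PPARd UAS-bla cells, 5 h pre-incubation, compound + L165041 300 nM final, 17 h 37 C; B/G FRET substrate 2 h RT; then CellTiter-Glo 30 min RT, luminescence.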

| SMILES | Potency | viability change, negative = cytotoxic |
| --- | --- | --- |
| CC(C)C(=O)O | inconclusive: 1930 nM [cytotoxic, single point] |  |
| COc1cc(Cl)ccc1Cl | inconclusive: 62900 nM [rising, single point] |  |
| CN(C)CCC(c1ccccc1)c1ccccn1 (configuration not stated) | inconclusive: 2190 nM [cytotoxic, single point] |  |
| CN(C)C(=O)Nc1ccc(Cl)c(Cl)c1 | inconclusive: 298 nM [cytotoxic, single point] |  |
| C=C(C)C(=O)OCCC(C)OC(=O)C(=C)C (configuration not stated) | inactive |  |
| CCCCCCCCS(=O)(=O)O | inactive |  |
| CC(=O)/C=C/C1C(C)=CCCC1(C)C (configuration not stated) | inactive |  |
| CCCC(C)C |  | inconclusive: -12.7% [cytotoxic] [at 80.4 µM] |
| NC(=S)NNC(N)=S |  | inconclusive: -10.1% [cytotoxic] |
| FC(F)(F)c1ccc(Cl)c(Cl)c1 | inactive |  |
| CCn1ccnc1CC1COc2ccccc2O1 (configuration not stated) | inconclusive: 668 nM [cytotoxic, single point] |  |
| C[C@@H]1CCC[C@H](C)N1CCCC(O)(c1ccccc1)c1ccccn1 (some centres not stated) | inconclusive: 8410 nM [cytotoxic, partial curve, poor fit] |  |
